# Measurements from PMC4336329 (PLoS ONE, 2015).
# Out of some 310,000 compounds screened, about 14,000 (4.5%) showed an effect of 50% or more. The effect is printed as a negative number. The list shows a part of the results.
# Target: human ether-à-go-go-related gene (hERG) potassium channel (human, UniProt Q12809)
# Assay: primary screen, population patch clamp on CHO cells stably expressing hERG
# 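Further: peak tail current of the secondary pulse compared with the same well before compound.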
# Sequence of human ether-à-go-go-related gene (hERG) potassium channel (Q12809 whole entry, looked up): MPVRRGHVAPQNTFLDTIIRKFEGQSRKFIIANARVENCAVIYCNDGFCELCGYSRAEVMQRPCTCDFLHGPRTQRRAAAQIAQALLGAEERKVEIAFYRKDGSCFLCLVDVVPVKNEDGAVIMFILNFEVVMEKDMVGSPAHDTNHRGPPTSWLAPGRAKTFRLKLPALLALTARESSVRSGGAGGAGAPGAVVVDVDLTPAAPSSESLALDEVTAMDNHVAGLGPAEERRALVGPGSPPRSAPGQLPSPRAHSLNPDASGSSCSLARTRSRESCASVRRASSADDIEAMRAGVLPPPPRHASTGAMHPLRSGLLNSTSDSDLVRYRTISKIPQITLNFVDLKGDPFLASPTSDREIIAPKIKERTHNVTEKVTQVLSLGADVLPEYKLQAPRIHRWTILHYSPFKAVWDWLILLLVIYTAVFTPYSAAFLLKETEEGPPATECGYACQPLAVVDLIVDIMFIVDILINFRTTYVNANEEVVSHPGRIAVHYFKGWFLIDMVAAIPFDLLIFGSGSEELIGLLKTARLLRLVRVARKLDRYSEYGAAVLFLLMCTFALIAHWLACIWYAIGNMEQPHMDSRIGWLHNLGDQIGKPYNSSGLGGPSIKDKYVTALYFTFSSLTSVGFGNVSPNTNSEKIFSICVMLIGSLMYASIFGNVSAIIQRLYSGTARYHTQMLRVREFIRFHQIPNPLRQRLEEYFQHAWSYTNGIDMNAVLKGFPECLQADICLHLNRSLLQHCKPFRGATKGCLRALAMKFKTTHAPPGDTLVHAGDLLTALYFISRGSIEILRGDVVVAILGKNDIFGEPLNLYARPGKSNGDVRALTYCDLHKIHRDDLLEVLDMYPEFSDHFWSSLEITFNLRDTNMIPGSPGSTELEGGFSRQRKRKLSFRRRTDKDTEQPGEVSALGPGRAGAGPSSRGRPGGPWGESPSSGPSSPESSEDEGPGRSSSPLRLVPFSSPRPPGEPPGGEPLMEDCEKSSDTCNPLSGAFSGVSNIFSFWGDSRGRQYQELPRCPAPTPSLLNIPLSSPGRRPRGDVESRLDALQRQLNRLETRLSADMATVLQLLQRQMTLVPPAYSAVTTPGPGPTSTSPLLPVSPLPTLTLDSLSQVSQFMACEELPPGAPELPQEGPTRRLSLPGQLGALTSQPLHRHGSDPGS
row,SMILES,"hERG current change (%, negative = inhibition) at 10uM [%]"
1,CCOc1cc(/C=C\c2nc(O)c([N+](=O)[O-])c(=O)[nH]2)ccc1OC(C)C,24.5
2,CCC(OC(=O)c1nsc(Cl)c1Cl)C(=O)NCCOC (stereo not shown),25.1
3,COC(=O)c1ccc(NC(=O)CCN2CCOCC2)cc1,5.24
4,COc1ccc(CNCC(=O)Nc2cccc(S(N)(=O)=O)c2)cc1.O=C(O)C(=O)O,6.09
5,CCc1nnc(NC(=O)C2=CCN(S(=O)(=O)c3ccccc3)CC2)s1,8.06
6,COc1ccccc1N(CC(O)COc1ccc(C)cc1)S(=O)(=O)c1ccccc1 (stereo not shown),6.08
7,O=C(c1ccco1)N1CCN(C2=NS(=O)(=O)c3ccccc32)CC1,-3.13
8,CN1CCCC(OC(=O)COc2ccc(Br)cc2)C1.Cl (stereo not shown),-12.8
9,COCCNC(=O)C(C)OC(=O)c1cc2occc2n1C (stereo not shown),0.269
10,COc1ccccc1C(=O)Nc1ccc2c(c1)C(=O)NC2=O,9.85
11,COc1cc(-c2nc(CN3CCN(c4ncccn4)CC3)c(C)o2)ccc1F,-9.65
12,Cn1cc(Cl)c(/C=C(\C#N)S(=O)(=O)c2ccccc2)n1,5.78
13,Cc1ccc(OCC(=O)NNC(=O)c2cc3ccccc3o2)cc1C,9.83
14,CC(C)c1onc(C(=O)Nc2sc3c(c2C#N)CCC3)c1[N+](=O)[O-],4.59
15,O=C(Nc1ccccc1F)c1cc(-c2ccco2)nc2ccccc12,16.6
16,O=c1c2ccccc2nc(-c2ccc(F)cc2)n1NCc1ccccc1O,-9.98
17,O=C(CN1C(=O)COc2ccccc21)Nc1ccccc1F,11.8
18,COc1ccc(/C=N/Nc2nnc(-c3ncc[nH]3)c3ccccc23)cc1,-8.36
19,CCCCOC(=O)Nc1ccc(S(=O)(=O)Nc2ccc([N+](=O)[O-])cc2)cc1,9.83
20,Cc1ccc(-n2nc3c(=O)n(CC(=O)NCc4ccc(C)o4)nc(C)c3c2C)cc1,13.1
21,O=C(/C=C/c1cccc(Cl)c1)N1CCC(Cc2ccccc2)CC1,-12.5
22,CCN(CCS(=O)(=O)c1ccc(Cl)cc1)C(=O)Nc1ccc(Cl)cc1,-38.9
23,CCCCn1c(=O)[nH]c(=O)c2c1nc(-c1ccc(CC)c([N+](=O)[O-])c1)n2C,10.8
24,COc1ccc(S(=O)(=O)NC(C(C)C)C(C)C)cc1OC,-5.38
25,CCOC(=O)[C@H]1[C@H]2COc3ccc(Br)cc3[C@@H]2N2C(=O)CN(Cc3ccc(C)cc3)C(=O)[C@@]12C,5.47
26,C[C@@]12CCC3[C@@](CCC4[C@@]3(C)CCC[C@@]4(C)C(=O)O)(CC1=O)C2 (stereo partly shown),7.87
27,COC(CNS(=O)(=O)c1cc2c3c(c1)CCN3C(=O)CC2)OC,28.5
28,COc1ccccc1CC(=O)Nc1ccc2c(c1)C(=O)NC2=O,1.9

row,SMILES,"hERG current change (%, negative = inhibition) at 10uM [%]"
1,CCOC(=O)C1CCN(C(=O)CN(c2ccc3c(c2)OCCO3)S(C)(=O)=O)CC1,-4.03
2,Cc1ccc(N/C(N)=N/c2nc(CSc3nnc(C)s3)cc(=O)[nH]2)c(C)c1,-8.86
3,CCN(CC(=O)Nc1ccccc1OC)C(=O)CSCC(=O)Nc1ccc(OC)cc1,0.652
4,COC(=O)c1ccc(C2c3[nH]c4ccccc4c3C[C@H]3C(=O)N(C4CC4)CC(=O)N23)cc1 (stereo partly shown),-21.3
5,Cc1cccc(CN2CCN(C(=O)CCc3nnc(C4CCCCC4)o3)CC2)c1,-14.9
6,CCOC(=O)C(NC(=O)c1ccc(OC)cc1)(Nc1cc(C)on1)C(F)(F)F (stereo not shown),-1.92
7,Cn1cc(S(=O)(=O)N2CCN(c3ccccc3F)CC2)c(=O)n(C)c1=O,23.3
8,CCC(C(=O)NCc1ccccc1OC)n1nc(C)n2c(cc3occc32)c1=O (stereo not shown),-6.27
9,COC(=O)C1=C(C)NC(C)=C(C(=O)OCC2CCCO2)C1c1cccc(Cl)c1 (stereo not shown),2.87
10,Cc1nn(-c2ccccc2)c(N)c1C1(O)C(=O)Nc2ccccc21 (stereo not shown),-4.95
11,Cc1cccc(-n2nnnc2SCC(=O)NCC2CCCO2)c1 (stereo not shown),-1.36
12,Cc1ccccc1Cn1nc(C)c(NC(=O)c2ccccc2)c1C,7.59
13,O=C(NCCc1ccc(F)cc1)c1cc2ccccc2oc1=O,6.16
14,COc1ccc(NC(=O)CN(C)C(=O)c2ccc(N3CCCCCC3)c([N+](=O)[O-])c2)cc1,-51.6
15,CN(C)c1ccc(C(=S)N2CCOCC2)cc1Br,2.14
16,O=C(Nc1ccncc1)c1ccc(N2CCCC2=O)cc1,1.98
17,CCOC(=O)C1=C(C)N(CCCCCC(=O)O)C(=O)NC1c1ccccc1OS(=O)(=O)c1ccc(C)cc1 (stereo not shown),-44.8
18,O=S(=O)(/N=C(/Nc1ccc(Cl)cc1Cl)c1ccccc1)c1cccs1,4.1
19,C/C(=C\CNc1ncnc2nc[nH]c12)CO,10.4
20,O=C(NN=C1CCN(Cc2ccccc2)CC1)c1cc2ccccc2cc1O,4.92
21,O=C(Nc1ccc2c(c1)OCO2)Nc1ccc(Cl)cc1Cl,9.53
22,CCOC(=O)N1CCN(CC(=O)Nc2nc3ccc(OC)cc3s2)CC1,-39.8
23,N#C/C(=C/c1ccncc1)c1nc2ccccc2s1,2.23
24,Cc1ccc(C(=O)COC(=O)C(C)N2C(=O)C3C4CCC(C4)C3C2=O)cc1C (stereo not shown),-23
25,O=C(O)CCCn1cc(NC(=O)COc2ccccc2F)cn1,31.6
26,O=C(NCCc1ccccc1)C(=O)c1c(-c2ccccc2)cc2ccccn12,14.3
27,COc1ccccc1OCCn1cc(/C=N/NC(N)=S)c2ccccc21,4.42
